# The full ranking holds about 33,000 sequences; the median of “E-score (-0.5 to 0.5)” is about -0.041, and the highest 2% start at about 0.37. The list shows a part of the results.
# Target: T1, Ecm22 (UniProt Q05958)
# T1 sequence: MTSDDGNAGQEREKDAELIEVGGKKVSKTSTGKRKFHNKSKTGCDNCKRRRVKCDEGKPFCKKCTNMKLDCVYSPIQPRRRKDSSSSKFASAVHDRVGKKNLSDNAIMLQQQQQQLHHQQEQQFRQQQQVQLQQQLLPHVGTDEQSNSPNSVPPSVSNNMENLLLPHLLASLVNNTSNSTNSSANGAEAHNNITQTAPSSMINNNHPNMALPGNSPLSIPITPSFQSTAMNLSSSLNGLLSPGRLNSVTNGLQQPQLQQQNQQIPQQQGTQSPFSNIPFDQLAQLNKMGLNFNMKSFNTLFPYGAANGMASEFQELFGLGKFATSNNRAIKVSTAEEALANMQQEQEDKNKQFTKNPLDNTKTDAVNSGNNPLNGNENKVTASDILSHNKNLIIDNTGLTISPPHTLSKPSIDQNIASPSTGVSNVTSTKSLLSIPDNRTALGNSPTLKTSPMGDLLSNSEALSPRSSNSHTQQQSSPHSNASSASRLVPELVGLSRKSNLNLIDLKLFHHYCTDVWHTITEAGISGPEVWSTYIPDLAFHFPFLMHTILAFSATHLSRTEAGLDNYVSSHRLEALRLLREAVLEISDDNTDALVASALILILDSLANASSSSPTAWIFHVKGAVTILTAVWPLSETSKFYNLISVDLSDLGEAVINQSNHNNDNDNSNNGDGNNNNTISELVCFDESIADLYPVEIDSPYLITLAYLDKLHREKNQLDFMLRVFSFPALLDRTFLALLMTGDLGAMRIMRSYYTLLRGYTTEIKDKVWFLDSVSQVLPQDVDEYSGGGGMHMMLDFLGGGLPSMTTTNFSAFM
# Assay: PBM E-score (8-mer binding enrichment) (E-score (-0.5 to 0.5)); higher = stronger / more preferred TF binding; most listed sequences are background and not binding sites
# Details: protein concentration: 200 nM; construct: GST-full length
# Procedure: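 Universal 'all 10-mer' protein binding microarrays (Agilent AMADID 015681) probed with GST-tagged S. cerevisiae TFs (full-length or DBD) made by in vitro transcription/translation (PURExpress), about 100-200 nM. Bound TF was detected with fluorescent anti-GST. Each ungapped 8-mer (which stands for itself and its reverse complement) is scored by the PBM enrichment score (E-score), a modified Wilcoxon-Mann-Whitney statistic from -0.5 to +0.5, computed with the Universal PBM Analysis Suite. Scale: above 0.35 generally sequence-specific binding.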
row,Sequence,PBM E-score
1,CACTGCGC,-0.179
2,AAAGAGTG,-0.104
3,CGAAAGTC,0.0394
4,ACGAGAGA,0.353
5,AGCTACAA,-0.181
6,ATGATGGC,-0.122
7,CGATCCCC,0.0996
8,AGCGGCCA,-0.244
9,AAATCACA,-0.0371
10,ATTCAGTC,-0.074
11,AAAATAGA,0.0199
12,CCCGTGCC,-0.0282
13,GATGCTAC,0.0998
14,CAGTTATC,-0.132
15,AGTGCTGC,-0.0275
16,AAAATCTA,-0.0067
17,CTATGAGA,-0.193
18,CAGGTTAA,0.0872
19,AAACTCTA,-0.12
20,GTTTTTAA,-0.00015
21,AACCCATA,0.136
22,AGTGACTG,-0.113
23,AGCTCAAC,-0.0198
24,GCTCCACC,-0.0804
25,ACCCCTCG,0.151

row,Sequence,PBM E-score
1,ATCGCCGG,-0.0654
2,ACCGTCGG,0.13
3,AACTCGGT,0.235
4,AATGAAAT,0.128
5,TCTCTGAA,-0.169
6,AACATTGT,0.0926
7,AGTATCCC,0.036
8,AAAAAGAA,-0.0275
9,GCTCTACC,-0.0817
10,ACATGATG,-0.161
11,ATAGAATC,-0.045
12,AATTACGG,0.109
13,GCGGTAGA,-0.103
14,CGCATACA,0.111
15,TATACAGA,0.16
16,ACTCTTAT,-0.0446
17,CGCGTCTC,0.184
18,TCAGGACA,-0.00888
19,CATCGCAC,0.164
20,GACCGTTA,0.00349
21,ACCCACTG,-0.187
22,CAGTACCC,-0.0859
23,GGCGTTCA,0.00425
24,ACCTAAAA,-0.0708
25,ACACTACA,0.057

row,Sequence,PBM E-score
1,CGTGACGA,0.104
2,TCCCGCAA,-0.0633
3,GATCACGC,0.0133
4,GGAGTTGA,0.0109
5,ACGGAGGC,0.0937
6,TATTACCA,0.0587
7,CCAGTAGG,-0.251
8,ACGAATAG,0.303
9,CTCCTAGC,-0.239
10,ACTCTCCG,-0.0362
11,TATAGTAA,0.124
12,CCCCCCTC,-0.0564
13,TAGTACGA,0.443
14,CGAGTCGC,0.156
15,AAGCGCAT,-0.0835
16,GACAACAC,0.168
17,ACCAATTA,-0.0176
18,CTTCCAAC,-0.128
19,CGCAGTCC,0.0278
20,GAGGCTTA,-0.265
21,GTGGCTTA,-0.0969
22,CGGTAGGC,-0.138
23,CGTAGCAA,0.288
24,AGGGGAGA,-0.206
25,AGTGTACA,-0.0734

row,Sequence,PBM E-score
1,TTTTAAAA,-0.0353
2,ACACATAA,-0.00795
3,TCTCGGCA,0.011
4,CCCCTTAA,-0.398
5,AACGGGAG,0.21
6,TCACGCGA,0.227
7,GCACGCAC,-0.0706
8,GAGCTTTA,0.0312
9,GCGGGACC,-0.0823
10,AAGCTGCT,-0.27
11,TAGACGGA,-0.0672
12,ACACGTAG,-0.295
13,ACCTCACT,-0.094
14,CCTCGAGA,-0.0721
15,CCCGACGA,0.112
16,CCTAGTAG,-0.141
17,ATTGATAA,-0.117
18,CCTGGTAA,-0.0304
19,GTCCCGGA,0.00987
20,ACCGAATA,0.18
21,CAAGACGG,-0.286
22,CAGATGGG,-0.356
23,ACCATCGT,0.244
24,AGCACAAA,-0.0863
25,GAGTTTTA,0.0469

row,Sequence,PBM E-score
1,CACCATGC,-0.195
2,GCGGAATA,-0.0934
3,GCATGAAC,0.0165
4,CGGCGTTC,0.117
5,CATAATCG,0.183
6,ATTAAGTC,-0.121
7,AAGAGGTG,-0.0239
8,CTACCGCA,-0.257
9,ACTCTAAA,0.0104
10,CTGAAGTC,-0.0259
11,AGCGCGCT,0.231
12,GCTTGCCA,-0.0782
13,TCGGCGAA,0.00046
14,AGGTATTA,-0.0627
15,ACTACTAG,-0.0821
16,AGAAGTCC,-0.00647
17,CTGAACGC,0.023
18,CAATACGC,-0.0345
19,CCGGCCGG,0.101
20,AGGTGAGG,-0.0427
21,GCCCTGCC,-0.0093
22,CCCGGCAA,-0.0692
23,GCATCACC,-0.295
24,TTCCTAAA,-0.0909
25,GGTGACAA,-0.0974

row,Sequence,PBM E-score
1,ACAATCGA,-0.0404
2,ACGCGCGG,0.0451
3,CTCATAGA,-0.0587
4,ACAAAGTG,-0.033
5,TATACTGA,0.182
6,GCCATCGC,-0.0403
7,ATGAGGAC,-0.161
8,AGATAATG,0.14
9,CGTTTGCC,0.285
10,CACGCCGG,-0.0956
11,TGAAAAAA,-0.0832
12,ATTATTAA,-0.101
13,TGTGATAA,-0.0313
14,AAGTGCAA,-0.0854
15,CACATGGA,-0.241
16,TGATTCAA,-0.0999
17,ATGAATAC,0.21
18,TCGCCCAA,0.0204
19,CAACCGGG,-0.144
20,GAATAAAA,0.0524
21,CGTCGGTA,0.153
22,AGTCACCC,-0.179
23,GTTGTAAA,-0.0257
24,ATATGATG,-0.146
25,TCCTAAGA,-0.185

row,Sequence,PBM E-score
1,AAACATGG,-0.11
2,ATGCACAA,-0.108
3,AGGGCAGC,-0.249
4,ACCAGCGC,-0.0753
5,GCTTGATA,-0.0303
6,AACGGGAA,0.259
7,GCATACAA,0.0278
8,GCATCCCC,-0.0293
9,ACGTGTAG,-0.0139
10,ACCACGTG,-0.00409
11,ACGGCGAG,0.214
12,GGACTCTA,-0.287
13,ATATCGGG,-0.0462
14,TCAAATGA,-0.249
15,AATGAAGT,-0.0367
16,CGGAGGGA,-0.0593
17,GAGAAACA,-0.0175
18,GAGTGTGA,0.185
19,GCAGCGGC,-0.0914
20,AAAGCCGC,0.0696
21,ATCCCTAA,-0.113
22,CGGCCAAC,-0.00659
23,CACACGTA,0.0253
24,CCGTTGCG,0.304
25,ACGGTTAT,0.337

row,Sequence,PBM E-score
1,CAATGAGA,-0.211
2,ACCGTCCT,-0.273
3,AGGTAGTG,-0.0796
4,AACGATTG,0.384
5,AAATTGGA,-0.097
6,ACCAGGTA,-0.0162
7,CCTTGGAG,-0.1
8,ATGTCGGA,0.0752
9,GAATTACA,0.0829
10,GCGGGAAA,0.162
11,CTCTCGCC,-0.0362
12,GGCTGAAA,-0.0667
13,AGATCGAA,-0.0769
14,CGTGACCC,0.0729
15,AGTGGCCG,-0.179
16,CCCATCGC,-0.0258
17,GTTTCTTA,0.0254
18,ATTCATCC,0.029
19,AAAAGGTT,-0.08
20,AGATAGTC,-0.0644
21,CCCTGAGG,-0.24
22,CCATAATA,0.0684
23,CAGTGATC,-0.0339
24,TCTAGAGA,-0.292
25,CGTATTAG,0.344

row,Sequence,PBM E-score
1,GATTAGGA,-0.246
2,CTCAGGAA,-0.256
3,AGTTTAAG,-0.127
4,TTAAGCAA,-0.0205
5,CTGAGACA,-0.149
6,ATCCAGTG,-0.169
7,CCGCGTTA,0.115
8,CTCCTGGA,-0.187
9,GCGCTCGA,0.0495
10,TAATTCTA,0.0717
11,ACGTCGGG,0.15
12,GCCGGACA,0.0133
13,GACTGTGA,-0.27
14,AGCCCATA,-0.248
15,AGCTCTTA,-0.139
16,GGCCGCCA,-0.341
17,CCATCTCC,0.0176
18,CTAGATGC,-0.068
19,AGGATTCC,-0.203

# From the supplement of paper PMC3334620
